The campaign covered roughly 390,000 compounds. About 4,000 (1%) were called active. The shares of active, inactive and inconclusive entries below differ from those in the screen. Calls come from the whole dose curve; as a rule, active = well fitted inhibition curve with a large enough effect; inconclusive = small, poorly fitted or top-dose-only effect; inactive = no such curve, though single readings can be large or run the other way. A potency beside an inconclusive call is a rough fit, not a confirmed value.
Target: Thioredoxin reductase 1, cytoplasmic (Rattus norvegicus) (UniProt O89049)
Sequence of UniProt O89049 (O89049 whole entry, looked up): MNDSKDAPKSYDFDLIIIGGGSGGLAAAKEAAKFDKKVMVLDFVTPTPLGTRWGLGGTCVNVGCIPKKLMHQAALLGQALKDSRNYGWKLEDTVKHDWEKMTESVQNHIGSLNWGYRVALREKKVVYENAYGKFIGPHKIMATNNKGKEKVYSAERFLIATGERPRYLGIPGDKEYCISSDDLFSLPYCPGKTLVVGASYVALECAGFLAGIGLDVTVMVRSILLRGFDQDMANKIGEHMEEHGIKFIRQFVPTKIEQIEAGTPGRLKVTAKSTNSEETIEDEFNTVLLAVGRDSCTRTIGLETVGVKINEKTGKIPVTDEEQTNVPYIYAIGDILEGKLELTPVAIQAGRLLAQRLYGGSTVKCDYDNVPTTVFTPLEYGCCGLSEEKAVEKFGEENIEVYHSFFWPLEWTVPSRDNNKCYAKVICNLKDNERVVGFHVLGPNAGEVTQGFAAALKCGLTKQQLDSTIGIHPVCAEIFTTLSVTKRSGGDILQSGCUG
Test: qHTS Assay for Inhibitors of Mammalian Selenoprotein Thioredoxin Reductase 1 (TrxR1): qHTS; note: nearly all actives have a fitted effect of over 65% in size
Conditions: recombinant rTrxR1, NADPH fluorescence consumption, selenite substrate; series mostly up to 114 µM
Procedure, shortened: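 Rat TrxR1 (90 nM in the dispensed reagent) was pre-reduced with 400 uM NADPH for 5 min at room temperature, then incubated with compound for 15 min. After 400 uM selenite was added, NADPH fluorescence (Ex 340/Em 450 nm) was followed for 8 min.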
Potency is the fitted concentration of half-maximal effect; tags give direction and shape of the fitted curve.

SMILES | Potency
CN(C1=C(N2CCOCC2)C(=O)c2ccccc2C1=O)c1ccccc1 | inconclusive: 11.2 µM [inhibitor, full curve]
CCNc1ccccc1CP(=O)(c1ccccc1)c1ccccc1O (stereo not drawn) | active: 50.1 µM
O=C(OCc1nnc(-c2ccccc2)o1)c1ccc(S(=O)(=O)NCc2ccco2)cc1 | inconclusive: 89.1 µM [inhibitor, single point]
CNS(=O)(=O)c1ccc2nc(NC(=O)/C=C/c3ccco3)sc2c1 | inconclusive: 35.5 µM [inhibitor, single point]
Cc1cc(C)n(CCc2nc(-c3ccc(C)o3)cs2)n1 | inconclusive: 28.2 µM [inhibitor, single point]
Nc1ccccc1C(=O)N1O[C@@H]2C=C[C@H]1C2 | inconclusive: 50.1 µM [inhibitor, partial curve]
Fc1cc(Br)ccc1NC(=S)Nc1ccccc1 | inconclusive: 56.2 µM [inhibitor, partial curve, poor fit]
CCN(CC)S(=O)(=O)c1nnc(NC(=O)c2ccc(C(C)C)cc2)s1 | inactive
Cc1ccc2nc(NC(=O)COC(=O)c3ccncc3)sc2c1 | inactive
COc1cc(CC(=O)O)ccc1O | inconclusive: 42.3 µM [inhibitor, partial curve, poor fit]
O=C(CSc1cn(CCNC(=O)c2ccc3ccccc3c2)c2ccccc12)NCc1ccco1 | inconclusive: 20 µM [inhibitor, partial curve]
CCOC(=O)C1CCCN(Cc2nc(N)nc(Nc3ccc(OC)cc3)n2)C1 (stereo not drawn) | inconclusive: 50.1 µM [inhibitor, partial curve]
COc1ccc(CCNC(=O)c2c(C)oc3ncn(CC(C)C)c(=O)c23)cc1OC | inactive
CCOC(=O)COc1ccc(Br)cc1/C=C\c1[nH]c(=O)[nH]c(=O)c1[N+](=O)[O-] | active: 44.7 µM
COC(=O)N1C(=O)[C@](CC(C)C)(c2ccccc2)N1C(=O)OC | active: 2 µM
O=C(/C=C/c1ccco1)Nc1ccc(N2CCCC2)cc1 | active: 31.6 µM
Cc1cccc(/C=C/c2onc(C)c2[N+](=O)[O-])n1 | inconclusive: 20 µM [inhibitor, partial curve, poor fit]
COc1ccccc1-c1nn2c(C(F)(F)F)nnc2s1 | inconclusive: 89.1 µM [inhibitor, partial curve, poor fit]
COc1ccc(C(C(C(=O)c2cccs2)N2CCOCC2)N2CCOCC2)cc1OC (stereo not drawn) | inconclusive: 14.1 µM [inhibitor, full curve]
O=C(NC(=S)Nc1cccc([N+](=O)[O-])c1)C1CCCC1 | inconclusive: 39.8 µM [inhibitor, partial curve]
CCOC(=O)c1cc2ccc3ccccc3c2s1 | inconclusive: 6.31 µM [inhibitor, single point]
OCc1ccc(O)c2ncccc12 | inconclusive: 89.1 µM [inhibitor, single point]

SMILES | Potency
Cc1nc(C(F)(F)F)nc(Nc2ccc(Br)cc2)c1C#N | inactive
O=S(=O)(c1ccccc1)c1nc(-c2ccco2)oc1N1CCCCC1 | inconclusive: 44.7 µM [inhibitor, partial curve]
CCN(CC)S(=O)(=O)c1cccc(-c2n[nH]c(=S)n2/N=C/c2ccc(C(=O)OC)cc2)c1 | inconclusive: 10 µM [inhibitor, partial curve]
Cc1oc(-c2ccccc2)cc1C(=O)Nc1ccccc1 | inactive
CC1(C)Cc2c(sc3nc4n(c(=O)c23)CCC4)CO1 | inconclusive: 70.8 µM [inhibitor, single point]
CC(OC(=O)c1nsc(Cl)c1Cl)C(=O)NCc1ccco1 (stereo not drawn) | inconclusive: 50.1 µM [inhibitor, partial curve, poor fit]
NC(=O)NO | inconclusive: 1.5 µM [inhibitor, full curve, poor fit]
Cc1nc2ccccn2c1/C(O)=C1\C(=O)C(=O)N(CCN2CCOCC2)C1c1ccncc1 (stereo not drawn) | inconclusive: 25.1 µM [inhibitor, partial curve, poor fit]
O=C(NC(=S)Nc1cccc2c(O)cccc12)c1cccc(Br)c1 | inconclusive: 70.8 µM [inhibitor, single point]
S=c1[nH]nc(-c2cc(-c3ccccc3)n[nH]2)n1/N=C/C=C/c1ccco1 | inconclusive: 12.6 µM [inhibitor, partial curve]
Nc1c(C(=O)Nc2ccccc2F)sc2nc(-c3ccco3)ccc12 | inconclusive: 4.47 µM [inhibitor, full curve]
COc1ccc(-n2ncc3c2CC(C)(C)CC3NC(=O)c2ccoc2C)cc1 (stereo not drawn) | inconclusive: 50.1 µM [inhibitor, partial curve]
Oc1ccc(C23CC4CC(CC(C4)C2)C3)cc1O | inconclusive: 50.1 µM [inhibitor, partial curve]
Cc1cccc(NC2=CC(c3cccc(Br)c3)N(c3cccc(C)c3)C2=O)c1 (stereo not drawn) | inconclusive: 50.1 µM [inhibitor, partial curve]
O=c1[nH]c2ccc(Br)cc2c(-c2ccccc2)c1CN1CCOCC1 | inconclusive: 79.4 µM [inhibitor, single point]
Cc1cccc(C)c1Nc1nc2ccccc2nc1NS(=O)(=O)c1ccccc1 | inconclusive: 89.1 µM [inhibitor, single point]
COc1ccc(C(c2c(O)ccc3ccccc23)N2CCOCC2)c(OC)c1 (stereo not drawn) | inconclusive: 28.2 µM [inhibitor, partial curve]
O=S(=O)(c1cccc(Br)c1)N1CCN(c2nc(-c3cccs3)nc3ccccc23)CC1 | inactive
CN(C)CCCN1C(=O)c2cccc3c(Br)ccc(c23)C1=O | inconclusive: 15.8 µM [inhibitor, partial curve, poor fit]
Cc1ccc(S(=O)(=O)N2CCN(c3ccc(C(F)(F)F)cc3[N+](=O)[O-])CC2)cc1 | inactive
CCOC(=O)C1CCN(C(=S)Nc2ccc(S(N)(=O)=O)cc2)CC1 | inconclusive: 50.1 µM [inhibitor, single point]

From PubChem BioAssay AID588453 (National Center for Advancing Translational Sciences (NCATS), 2011)
